Reference: the supplement of paper PMC3334620
Whole data set: some 33,000 sequences, median “E-score (-0.5 to 0.5)” near -0.056, cut for the highest 2% near 0.38. The list shows a part of the results.

Molecular target: Stb4 (UniProt P50104)
Assay: PBM E-score (8-mer binding enrichment) (E-score (-0.5 to 0.5)); higher = stronger / more preferred TF binding; most listed sequences are background and not binding sites
Conditions: protein concentration: 200 nM; construct: GST-DNA-binding domain
Method: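 Universal 'all 10-mer' protein binding microarrays (Agilent AMADID 015681) probed with GST-tagged S. cerevisiae TFs (full-length or DBD) made by in vitro transcription/translation (PURExpress), about 100-200 nM. Bound TF was detected with fluorescent anti-GST. Each ungapped 8-mer (which stands for itself and its reverse complement) is scored by the PBM enrichment score (E-score), a modified Wilcoxon-Mann-Whitney statistic from -0.5 to +0.5, computed with the Universal PBM Analysis Suite. Scale: above 0.35 generally sequence-specific binding.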

Row | Sequence | PBM E-score
1 | TGGCACAA | -0.192
2 | GTTGAAAC | 0.0717
3 | GGGCTTTA | -0.219
4 | CACTTGTC | 0.135
5 | ACGCTGAA | 0.0244
6 | TAACTCCA | -0.134
7 | GCGCCTCC | -0.105
8 | CTAGCCGA | 0.455
9 | CTTATGGC | -0.154
10 | GTCCAACA | -0.108
11 | AAGACCGT | -0.0619
12 | AGTCCCGA | 0.389
13 | CTCGCTGC | -0.0906
14 | AACGTCAT | -0.108
15 | AGTTAGGC | -0.188
16 | AGCATCAA | -0.15
17 | ACGTCCGG | 0.157
18 | AAGCGAGA | 0.0626
19 | ACCTCGGA | 0.463
20 | GACCCGGC | 0.268
21 | GCGGCACA | 0.121
22 | GGTTCGGA | 0.442
23 | CACGTTGA | -0.178
24 | TCTACAGA | -0.0349
25 | ATGAGCGA | -0.03

Row | Sequence | PBM E-score
26 | AGCAAACG | -0.0254
27 | ATTTAACC | 0.224
28 | GTTTAGCA | -0.0138
29 | ACCTAAGG | -0.199
30 | ATGGGATG | -0.0874
31 | CTGGCACA | -0.261
32 | ATTTTCGC | -0.0335
33 | GCGTAGTA | -0.15
34 | AATAGCAC | -0.205
35 | CAAATGAC | -0.15
36 | GCCAGGCC | 0.00566
37 | AACTCAAC | -0.0617
38 | GTCATCAA | -0.124
39 | CGCGTATA | -0.11
40 | CGGATTAA | 0.381
41 | AGGGGCAC | -0.119
42 | GTCCGAAC | 0.335
43 | CACAAACG | 0.132
44 | CCGTGGAC | 0.131
45 | CGGGATAA | 0.343
46 | AGTTCAGG | -0.28
47 | AGTGGACA | -0.111
48 | ATCTAGCG | -0.126
49 | CCTTTGGC | -0.165
50 | CGAATTTC | 0.258

Row | Sequence | PBM E-score
51 | CACTAGAA | 0.0142
52 | CACCTCCG | 0.191
53 | AACAACTA | -0.0473
54 | TCCAGCGA | -0.194
55 | CGAGGAGC | 0.0986
56 | GCAACTAC | 0.0214
57 | GTTACCGA | 0.366
58 | CTCTATGC | -0.201
59 | CACGACTA | -0.269
60 | GCTAGCCA | -0.11
61 | TAGAACAA | -0.0766
62 | CACGGGCC | 0.189
63 | CTGAACCC | -0.0606
64 | CCAACGAA | -0.0652
65 | GAAGTTCC | 0.197
66 | GTACTCCA | -0.133
67 | GAATTCTA | 0.0276
68 | GCGACAAC | -0.119
69 | AAGTAACC | -0.0685
70 | GCCTAATA | -0.0764
71 | ATGCGTCA | -0.145
72 | CCTCATTC | -0.214
73 | TAGACCGA | 0.152
74 | CTATAAAA | 0.00169
75 | ATCGTATG | -0.302

Row | Sequence | PBM E-score
76 | CCGGCGGC | 0.282
77 | CACGACAC | -0.0595
78 | CCACAAGA | -0.144
79 | GGATAAAA | 0.307
80 | ATAGCATG | -0.0881
81 | AGACACAC | -0.16
82 | CGAACCCC | 0.232
83 | ATGTTGTC | -0.0925
84 | AGGTGCGC | -0.119
85 | ATAGCCCC | -0.092
86 | GCCAAGCA | -0.175
87 | CAGATCAA | -0.22
88 | CCATCAAA | -0.188
89 | GTATCATA | -0.0852
90 | AAGCCTTC | -0.0191
91 | CTGGACTC | -0.175
92 | ACGTCAGA | -0.294
93 | CGGTGAAG | -0.0865
94 | CCTTCCCA | -0.066
95 | AGTGGGAT | -0.0287
96 | AAGACCCA | -0.0993
97 | AAATAACA | 0.104
98 | GCACACGC | -0.143
99 | CTAATACA | -0.142
100 | GATACGGC | 0.068

Row | Sequence | PBM E-score
101 | TAATCTAA | 0.0146
102 | CCAGAAGC | 0.0876
103 | CGTTGGTC | 0.0494
104 | CCTTTCGC | -0.0474
105 | ACTCCTAT | -0.146
106 | CACCGTAG | -0.0514
107 | CGCCCGCG | 0.137
108 | CGGGTACA | 0.378
109 | CCATCTCA | -0.273
110 | CAAGTCGC | -0.303
111 | ACGAGCAC | -0.133
112 | ACCTTCAA | -0.0963
113 | AGAAATTG | 0.0528
114 | CCATCGCA | -0.229
115 | GGCCTATA | -0.0356
116 | CTACTCTC | -0.0273
117 | ATACGCTC | -0.0477
118 | AGTGCGGC | 0.124
119 | AATTTTAG | -0.193
120 | AAACTAGC | -0.08
121 | GGATAAAC | 0.272
122 | AATACATA | -0.00111
123 | AACGGGCG | -0.0573
124 | GGTTACAA | 0.0866
125 | AACCTGCA | -0.23

Row | Sequence | PBM E-score
126 | AAAGCACA | -0.178
127 | AAGAAATC | -0.17
128 | CGCAGGTC | -0.0281
129 | CCCCGTGA | -0.096
130 | GAGAATAA | 0.0577
131 | AGAGCGAA | -0.134
132 | GCTCATGA | -0.0848
133 | GAGGGGTA | 0.0739
134 | CATTAGAC | -0.184
135 | TATAAATA | 0.0782
136 | GGGTTTAC | 0.0341
137 | ATACCTAA | -0.241
138 | ATACGCCG | 0.177
139 | AGCGAGTA | 0.12
140 | AGTGCCAA | -0.29
141 | GGATGGCC | 0.00847
142 | CTGAGACC | -0.0773
143 | ACTGGCAC | -0.123
144 | GATCTCAA | -0.00656
145 | TCATCGCA | -0.25
146 | ACTAGCCC | -0.0544
147 | AGAGGCAG | -0.139
148 | AGCACGTG | -0.125
149 | AGGGAGTG | -0.281
150 | AATAGTGA | -0.009

Row | Sequence | PBM E-score
151 | CCTCATAG | -0.165
152 | AACTGTAT | -0.0253
153 | GCTAGTAC | -0.0967
154 | CCAGGAAG | -0.176
155 | CGGCTACC | 0.31
156 | AATGCGTC | -0.226
157 | ACGGGAAG | 0.232
158 | GTTCCTTA | 0.0117
159 | CAGAGTAA | -0.113
160 | CAGAGATA | -0.182
161 | CTGGCTCC | -0.168
162 | AGAGCCTC | -0.246
163 | ACAGCCAT | -0.243
164 | AATGGGGG | -0.246
165 | AGTTCGAT | -0.25
166 | AAGAAAGC | -0.0269
167 | AACTCCGT | 0.206
168 | TATCCTCA | -0.0131
169 | AGGCAACT | 0.0729
170 | AACGAAAT | 0.102
171 | AAGGGACC | -0.0643
172 | ACGGTAAG | 0.105
